Measurements taken from PubChem BioAssay AID686970 (National Center for Advancing Translational Sciences (NCATS), 2013).
Among all 360,000 compounds or so, about 6,000 (1.7%) were called active. The shares of active, inactive and inconclusive entries below differ from those in the screen. Calls come from the whole dose curve; as a rule, active = well fitted cell-killing curve with a large enough effect; inconclusive = small, poorly fitted or top-dose-only effect, or effect the other way; inactive = flat fitted curve, though single readings scatter. Potencies of inconclusive entries are left out as doubtful fits.

Experiment: qHTS for induction of synthetic lethality in tumor cells producing 2HG: qHTS for the HT-1080-NT fibrosarcoma cell line;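 note: NT is the 2HG producing partner of a matched IDH1 knockdown line; nearly all actives have a fitted effect of over 55% in size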;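 for activity, negative = less viability: 0% = DMSO-treated cells and -100% = media-only wells without cells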
Conditions: HT-1080-NT fibrosarcoma viability, CellTiter-Glo ATP luminescence, 48 h; activity, negative = less viability: at 46.1 µM (top of the series)
How it was run: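 HT-1080-NT fibrosarcoma cells (2HG-overproducing), 750 cells/well in RPMI with 5% FBS, dosed after 2 h and incubated 48 h at 37C. CellTiter-Glo luminescence normalized to DMSO and no-cell wells; concentration-response curves fitted and classed.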
Potency is the fitted concentration of half-maximal effect; tags give direction and shape of the fitted curve.

Compound | Potency | activity, negative = less viability
N#CC1=C(N)Oc2c(c(=O)oc3ccccc23)C1c1ccccc1OC(=O)c1cccs1 (stereo unspecified) | inconclusive [cytotoxic, single point] | 
Cc1ccc(-n2c(O)c(C=Nc3ccc(Br)cn3)c(=O)[nH]c2=O)cc1 | inconclusive [rising, single point] | 
O=C1NCN(c2ccccc2)C12CCN(C(c1ccnc3ccccc13)c1nnnn1-c1ccc3c(c1)OCCO3)CC2 (stereo unspecified) | inconclusive [cytotoxic, single point] | 
O=c1[nH]c2ccccc2n1C1CCN(C(c2ccccc2)c2nnnn2Cc2ccccc2)CC1 (stereo unspecified) | active: 13 µM | 
CCOC(=O)CC1c2ccccc2-n2nncc2CN1CC1CCCCC1 (stereo unspecified) |  | inactive: -5.87%
Cc1cccc(C)c1-n1nnnc1C(c1ccccc1)N1CCC2(CC1)C(=O)NCN2c1ccccc1 (stereo unspecified) | inconclusive [cytotoxic, single point] | 
C[C@@H]1O[C@@H](O[C@@H]2C=C3CC[C@@H]4C(CC[C@]5(C)[C@@H](c6ccc(=O)oc6)CC[C@]45O)[C@@]3(C)CC2)[C@H](O)[C@H](O)[C@H]1O (stereo partly specified) | active: 0.0184 µM | 
CN1CCC(O)(c2cccs2)C(C(=O)c2cccs2)C1 (stereo unspecified) | active: 23.1 µM | 
O=C(Cn1cc(C(=O)c2ccccc2)c2ccccc21)NCc1ccco1 | inconclusive [cytotoxic, single point] | 
Cc1ccc(C(=O)N[C@@H](C)CN2C3=NC[C@@H](Cc4ccccc4)N3C[C@H]2Cc2ccc(O)cc2)cc1Br | inconclusive [cytotoxic, single point] | 
COC(=O)C[C@]1(C(=O)OC)CN(C#N)N(c2ccc(Cl)cc2)C12c1ccccc1-c1ccccc12 | active: 10.3 µM | 
CSc1ccc(C(=O)C2CCCN(Cc3cccnc3)C2)cc1 (stereo unspecified) | inconclusive [cytotoxic, single point] | 
CCCCn1c(O)c(C(C)=NCc2ccco2)c(=O)[nH]c1=O |  | inactive: 2.84%
O=C1NC2C(=CC(O)C(O)C2O)c2cc3c(c(O)c21)OCO3 (stereo unspecified) | active: 0.731 µM | 
CC(=Nc1ccccc1N)c1c(O)n(C)c(=O)n(C)c1=O |  | inactive: 0.513%
O=C1NCN(c2ccccc2)C12CCN(C(CCc1ccccc1)c1nnnn1C1CCCC1)CC2 (stereo unspecified) | inconclusive [cytotoxic, single point] | 
C/C(=N\Nc1ccccc1)c1c(O)n(-c2ccccc2)c(=O)[nH]c1=O | inconclusive [cytotoxic, full curve, poor fit] | 
COc1cccc(-c2nc(CS(=O)CC(=O)N3CCC4(CC3)OCCO4)c(C)o2)c1 (stereo unspecified) |  | inactive: 1.63%
CCOC(=O)c1c(NS(=O)(=O)c2ccccc2)n(CCCOC)c2nc3ccccc3nc12 | inconclusive [cytotoxic, single point] | 
C[C@H](CO)N1C[C@H](C)[C@H](CN(C)S(=O)(=O)c2ccc(Cl)cc2)OCc2ccccc2-c2c(n(C)c3ccccc23)C1=O | inconclusive [cytotoxic, single point] | 
Cc1ccccc1-[n+]1c(-c2ccccc2)cc(-c2ccccc2)cc1-c1ccccc1 | active: 7.31 µM | 
COc1cc(C)c(CNCCc2c[nH]c3ccccc23)cc1C | inconclusive [cytotoxic, partial curve] | 

Compound | Potency | activity, negative = less viability
CC1CC(NC(=O)C2C3CCC(O3)C2C(=O)O)CC(C)(C)C1 (stereo unspecified) | inconclusive [cytotoxic, partial curve] | 
COc1ccc(-c2ccc3c(c2)CN(C(=O)CCc2ccccc2)Cc2cnnn2-3)cc1 | inconclusive [cytotoxic, partial curve, poor fit] | 
CCCc1nc2ccccc2c(=O)n1-c1ccccc1OC |  | inactive: 4.26%
CCC(=NCCc1c[nH]c2ccccc12)c1c(O)n(C)c(=O)n(C)c1=O | inconclusive [cytotoxic, single point] | 
O=C(c1cccc(Cl)c1)C1CCCN(Cc2cccc3cnccc23)C1 (stereo unspecified) | active: 9.2 µM | 
NNC(N)=O | inconclusive [rising, full curve] | 
CC(C)c1ccc2[nH]c(O)c(N=NC(=O)c3cccc(S(=O)(=O)Nc4ccc(Cl)cc4)c3)c2c1 | inconclusive [cytotoxic, full curve] | 
O=c1[nH]c2ccccc2n1C1CCN(Cc2ccc(-c3nc4ccc(F)cc4nc3-c3ccccc3)cc2)CC1 | active: 20.6 µM | 
C=C(C=O)CC1CC(O)[C@]2(C)OC3CC4OC5C[C@]6(C)O[C@]7(C)CCC8OC9C[C@]%10(C)OC%11C(C)=CC(=O)OC%11CC%10OC9C[C@@H](C)C8OC7CC6O[C@]5(C)CC5OC5C4OC3CC2O1 (stereo partly specified) | inconclusive [cytotoxic, partial curve, poor fit] | 
CCOc1ccc(Cl)cc1CNCCc1ccc(F)cc1 | inconclusive [cytotoxic, single point] | 
CN1CCN2c3ccccc3CC3(C(=O)N(C)C(=O)N(C)C3=O)C2C1 (stereo unspecified) |  | inactive: 5.59%
CN1CCN(c2nc(N)c(Br)c(Cl)n2)CC1 |  | inactive: -1.74%
O=C1NCN(c2ccccc2)C12CCN(C(CCc1ccccc1)c1nnnn1-c1ccc3c(c1)OCCO3)CC2 (stereo unspecified) | inconclusive [cytotoxic, partial curve] | 
COc1ccccc1CCNC1CCC(C(C)(C)C)CC1 (stereo unspecified) | inconclusive [cytotoxic, single point] | 
Oc1ccc(/C=N/NP(=S)(c2ccccc2)c2ccccc2)cc1O | inconclusive [cytotoxic, single point] | 
COc1ccc(-c2noc(=O)n2Cc2cc(C)ccc2C)cc1 | inconclusive [cytotoxic, partial curve] | 
COc1cc(C(=O)N/N=C/c2ccc(OC(=O)N3CCOCC3)cc2)cc(OC)c1OC | inconclusive [cytotoxic, single point] | 
COc1cc(CN2CC3CC(C2)c2cccc(=O)n2C3)cc(OC)c1OC (stereo unspecified) |  | inactive: 2.57%
CC1CCC(C(C)C)C(OC(=O)Cn2c(COc3ccccc3)[n+](C)c3ccccc32)C1 (stereo unspecified) | active: 11.6 µM | 
Oc1c(Cl)cccc1Cc1cc(Cl)cc(Cl)c1O | inconclusive [cytotoxic, partial curve, poor fit] | 
CCOC(=O)c1cccc(C2=C(CNC(C)=O)[C@H]3CC[C@@H](C2)N3Cc2ccccc2)c1 |  | inactive: -2.8%
C[C@@H]1NCCc2cc(O)c(O)cc21 | inconclusive [rising, partial curve] | 

Compound | Potency | activity, negative = less viability
CCN1/C(=C\C=C\C2=[N+](CC)c3ccccc3C2(C)C)C(C)(C)c2ccccc21 | active: 0.651 µM | 
COc1ccc(C=O)cc1 |  | inconclusive: 31.4%
O=[N+]([O-])c1ccc(N2CC2)c([N+](=O)[O-])c1 |  | inactive: 7.39%
CC(=O)O[C@@]12CO[C@@H]1C[C@H](O)[C@@]1(C)C(=O)[C@H](O)C3=C(C)[C@@H](O)C[C@@](O)([C@@H](OC(=O)c4ccccc4)C12)C3(C)C (stereo partly specified) | inconclusive [cytotoxic, single point] | 
COC(=O)c1ccc(N=C(c2ccccc2)c2c(O)n(C)c(=O)n(C)c2=O)cc1 | inconclusive [cytotoxic, single point] | 
O=C(Nc1ccncc1)c1cccn(Cc2ccccc2)c1=O | inconclusive [cytotoxic, partial curve] | 
CC1OC(OC2C(O)CC(OC3C(O)CC(OC4CCC5(C)C(CCC6C5CCC5(C)C(C7=CC(=O)OC7)C(O)CC65O)C4)OC3C)OC2C)CC(O)C1O (stereo unspecified) | active: 1.03 µM | 
COc1ccc(Cc2nccc3cc(OC)c(OC)cc23)cc1OC | inconclusive [cytotoxic, partial curve, poor fit] | 
O=C(N/N=C/c1c(O)n(CCC2=CCCCC2)c(=S)[nH]c1=O)c1ccccc1 | inconclusive [cytotoxic, single point] | 
CCCc1nc2ccc(Br)cc2c(=O)n1-c1ccc([N+](=O)[O-])c(C(F)(F)F)c1 | inconclusive [cytotoxic, single point] | 
Cc1ccc(N2C(=O)NC(=O)C(CCc3ccccn3)(Cc3cccc(Cl)c3Cl)C2=O)cc1 (stereo unspecified) |  | inactive: 0.408%
CC1CCC2[C@@H](C)C(=O)OC3O[C@]4(C)CCC1C32OO4 (stereo partly specified) |  | inactive: -0.15%
Oc1ccccc1O | inconclusive [cytotoxic, partial curve] | 
C1=NCCc2c1[nH]c1ccccc21 | inconclusive [cytotoxic, single point] | 
Cc1ccc(CN2C3CCCC2CC(NC(=S)NCc2ccccc2)C3)cc1 (stereo unspecified) | active: 23.1 µM | 
COC(=O)[C@@H](N)CCCN=C(N)N[N+](=O)[O-] | inconclusive [rising, partial curve, poor fit] | 
CCCCCN1C(=O)c2cc(OC)ccc2[C@@]2(C(=O)OCC)Cc3cc(OC)ccc3[C@@H]12 | active: 14.6 µM | 
c1ccc(C2CC3CC(c4ccco4)N2O3)cc1 (stereo unspecified) |  | inactive: 15.2%
O=c1[nH]c(O)c(N=Nc2ccc(SC(F)F)cc2)c(=O)[nH]1 | inconclusive [cytotoxic, single point] | 
COc1ccc(-n2nnnc2C(CCc2ccccc2)N2CCC3(CC2)C(=O)NCN3c2ccccc2)cc1 (stereo unspecified) | inconclusive [cytotoxic, partial curve] | 
O=[N+]([O-])c1ccc(N(CCO)CCO)c2c1no[n+]2[O-] | active: 8.2 µM | 
O=C(c1ccc(-c2ccccc2)c(F)c1)C1CCCN(CCO)C1 (stereo unspecified) | inconclusive [cytotoxic, partial curve] | 
